Each structure is given as a SMILES string. Over roughly 5,400 compounds, “IFI” has its median near 2; the highest 2% begin near 22. Some of the results follow.

The experiment can be described thus: NOVARTIS: Inhibition Frequency Index (IFI) - the number of HTS assays where a compound showed > 50% inhibition/induction, expressed as a percentage of the number of assays in which the compound was tested. Format: functional.
The compound `CCOC(=O)c1c(NC(=O)CSc2nnc(CNC(=O)c3cccs3)n2-c2cccc(Cl)c2)sc2c1CCCC2` gave an IFI of 1.25%.
With `OCC1CCCN1c1nccnc1-c1ccccc1Oc1ccccc1` (stereo not drawn), the IFI is 0%.
As for `O=C1C=C(Nc2ccc(O)cc2)c2ccccc2C1=O`, the figure is 7.75%.
In the case of `COc1ccc(-c2cnc3ccc(NC4CCOCC4)nn23)cc1OC`, the IFI turned out to be 0%.
The compound `O=C(Nc1cc(Cl)ccc1O)c1cnn2c(C(F)(F)F)cc(-c3ccc(F)cc3)nc12` displayed an IFI of 2.3%.
In turn, `O=C1CCC2C3C=CC(C3)C12` (stereo not drawn) yielded an IFI of 1.25%.
`O=C(NC1CC1)c1ccc(N2CCC(Cc3ccccc3)CC2)c([N+](=O)[O-])c1` came in with an IFI of 0%.
`CCc1c2ccc(C)n2cc[n+]1CC` had an IFI of 6.02%.
As to `Cc1ccc(-c2c3c(nc4sc(C(=O)Nc5ccc(Cl)cc5)c(N)c24)CCCC3)o1`, the IFI came to 2.3%.
As for `CCCCC(CC)C(=O)N(CCCC(C)Nc1cc(OC)cc2cccnc12)Cc1ccc(OC)c(OC)c1` (stereo not drawn), the figure is 1.85%.
As to `CCc1n(CC(=O)OC2CC(C)CCC2C(C)C)c2ccccc2[n+]1C` (stereo not drawn), the IFI was found to be 7.14%.
`Cc1cc(Nc2ccc(Br)cc2)n2nc(C)nc2n1` displayed an IFI of 1.96%.
As for `CCCCCc1ccc(OCCCC[n+]2cccc(C)c2C)c(CCCCC)c1`, the figure is 7.14%.
`Cc1ccc(Cl)cc1Nc1nc2ccccc2n2c(C)nnc12`: the IFI was found to be 0%.
Regarding `CCOC(=O)c1c(CNCCN(CC)CC)n(C)c2cc(Br)c(OC(C)=O)cc12`, the IFI is 0%.
As for `CCOc1ccc(NC(=O)c2ccc(I)o2)cc1`, the figure is 7.69%; as for `CN(CCCNc1ccnc2cc(Cl)ccc12)C(=O)c1cccc(Cl)c1`, 1.85%.
Turning to `CCOc1ccccc1NC(=O)Cn1c(=O)n(Cc2ccccc2)c(=O)c2c(C)c(C(=O)N(C)C)sc21`, the IFI is 6.25%.
`Cc1cc(N2CCN(c3ccccn3)CC2)n2c(nc3ccccc32)c1C#N` registered an IFI of 0%.
`CCCCCCCC(=O)N1CCN(CCN(Cc2ccc(F)cc2)C(=O)c2c(-c3c(F)cccc3Cl)noc2C)CC1` showed an IFI of 4.81%.
The compound `CC1=C(CC(=O)c2ccc(Cl)cc2)C(=O)c2ccccc2C1=O` displayed an IFI of 9.76%.
Under `COC(=O)C1=CNC=C(C(=O)OC)C1c1ccc(Cl)c(Cl)c1` stands 6.1%.
Turning to `COc1ccc([N+](=O)[O-])cc1NC(=O)C(C)Nc1ccc(N(C)C)cc1` (stereo not drawn), the IFI is 6.25%.
Compound `COc1ccc(OC)c(-c2ccc(O)c(CNCC(C)c3ccccc3)c2)c1` (stereo not drawn) returned an IFI of 3.51%.
As for `CN(C)CCNc1cc(-c2ccc3ccccc3c2)nc2ccccc12`, the figure is 4.51%.
Turning to `COc1ccc(Nc2nc(NN=Cc3cccc([N+](=O)[O-])c3)nc(Nc3ccc([N+](=O)[O-])cc3)n2)cc1`, the IFI stood at 5.26%.
`O=[N+]([O-])c1ccc2nc(NC3CCCCC3)c(NC3CCCCC3)nc2c1` registered an IFI of 7.69%.
Turning to `Cc1ccc(NC2=C(c3ccc(C(F)(F)F)cc3)C(=O)c3ccccc32)cc1C`, the IFI was found to be 0%.
In the case of `O=[N+]([O-])c1cc(C(F)(F)F)c(Cl)c([N+](=O)[O-])c1Nc1cc(C(F)(F)F)ccc1Cl`, the IFI turned out to be 21.2%.
`Cc1cc(N2CCCCC2)nc2ccc(NC(=O)c3cncc(Br)c3)cc12`: the IFI came to 0%.
Compound `O=c1c2ccccc2[nH]c2ccc(F)cc12` had an IFI of 0%.
Regarding `CCOc1ccc2nc(NCCNC(=O)c3ccco3)c(C)cc2c1`, the IFI is 3.9%.
With `CC(C)(C)CC(C)(C)Nc1c(-c2ccccc2OC(=O)C2CCCC2)nc2ccccn12`, the IFI amounted to 3.77%.
Regarding `CCN(CC)CCCC(C)Nc1c2ccc(Cl)cc2nc2ccc(OC)cc12` (stereo not drawn), the IFI came out at 6.95%.
As for `c1ccc2c(c1)c1c(c3ccccc32)CN2CCCC2C1` (stereo not drawn), the IFI was determined as 3.51%.
With `CCOC(=O)c1ccc(NC(=O)c2sc(NC(=O)c3cc(OC)c(OC)c(OC)c3)c(C(=O)OCC)c2C)cc1`, the IFI is 2.33%.
As for `CCCCCN(C(=O)Nc1ccccc1OC)C(CC)c1nc2ccccc2c(=O)n1-c1ccccc1OC` (stereo not drawn), the figure is 1.96%; as for `CCCCCC(=O)Oc1ccccc1-c1nc2cc(C)ccn2c1NC(C)(C)CC(C)(C)C`, 4.67%; as for `O=C(NCCCCNc1ccnc2cc(Cl)ccc12)c1ccco1`, 0.943%.
`CCOC(=O)c1cnc2ccccc2c1NCCCN(C)C` registered an IFI of 0%.
In turn, `O=C(Nc1ccc(F)c(F)c1)c1cc2cc(C3(O)CCN(Cc4ccccc4F)CC3)ccc2o1` registered an IFI of 2.97%.
Under `CCN1C(=Cc2sc3ccccc3[n+]2C)C=Cc2ccc(C)cc21` stands 23.8%.
`CCOC(=O)c1c(N)n(-c2ccc(NC(=O)c3cccc([N+](=O)[O-])c3)cc2)c2nc3ccccc3nc12` displayed an IFI of 6.25%.
In turn, `COc1cccc2cc(-c3nc(-c4ccccc4)cs3)c(=O)oc12` came in with an IFI of 6.45%.
For the compound `Oc1cccc(Nc2nc(NCC3CCCO3)c3ccccc3n2)c1` (stereo not drawn), the IFI was 1.59%.
In turn, `O=C(Nc1ccc(C2=NCCN2)cc1)c1cc(Cl)c(C(=O)Nc2ccc(C3=NCCN3)cc2)cc1Cl` registered an IFI of 0%.
In turn, `CSCCN1CCc2ccc3[nH]cc(-c4cccc(Cl)c4)c3c2C1` displayed an IFI of 5.56%.
For `CC(=O)C1=C(O)C(=O)N(c2ccc(Br)cn2)C1c1ccccc1[N+](=O)[O-]` (stereo not drawn), the IFI worked out at 0%.
Under `CC1=NOC(=O)/C1=C/c1ccc(-c2ccc([N+](=O)[O-])cc2)o1` stands 0%.
For `CCSc1ccc2ccccc2[n+]1CC`, the IFI came to 0.746%.
`Cc1cc(=O)n(-c2nc(-c3ccccc3O)nc3ccccc23)[nH]1` showed an IFI of 0%.
In turn, `Cc1sc2ncn(CC(=O)N(C)Cc3ccccc3)c(=O)c2c1S(=O)(=O)N1CCOCC1` returned an IFI of 0%.
`Cc1ccccc1N1C(=O)N(c2ccccc2)C2CS(=O)(=O)CC21` (stereo not drawn) showed an IFI of 4.76%.
Under `CCOC(=O)c1c(NC(=O)CSc2nnc(CNC(=O)c3cccc(OC)c3)n2C2CCCCC2)sc2c1CCCC2` stands 0%; under `COc1cccc(C(=O)Oc2ccccc2-c2nc3ccccn3c2NC(C)(C)CC(C)(C)C)c1`, 5.56%.
As for `CN1CCCC1CCNc1ncc(C(=O)NCc2ccccc2)c(NCC2CCCCC2)n1` (stereo not drawn), the IFI was 3.88%.
With `Oc1ccc(Nc2nc(NCc3ccco3)c3ccccc3n2)cc1`, the IFI was 0%.
In turn, `COc1cccc(C(=O)NC(c2ccccc2OC)c2cc(Cl)c3cccnc3c2O)c1` (stereo not drawn) yielded an IFI of 0%.
For `CCOC(=O)c1ccc(NC(=O)c2cc(-c3ccccc3)nc3ccc(C)cc23)cc1`, the IFI came out at 3.49%.
`Cc1cc(Cl)ccc1NC(=O)c1ccccc1[N+](=O)[O-]` gave an IFI of 0.82%.
As for `O=[N+]([O-])c1ccc(-n2cccc2C=NNc2ncnc3sc4c(c23)CCCC4)cc1`, the figure is 0%; as for `COc1cc(NC(C)CCCN(Cc2ccc(F)cc2)C(=O)c2ccccc2F)c2ncccc2c1` (stereo not drawn), 2.15%.
The compound `CCCCCC(=O)N1c2ccccc2N=C2CC(c3ccc(OC)c(OC)c3)CC(O)=C2C1c1ccc(C(F)(F)F)cc1` (stereo not drawn) returned an IFI of 3.37%.
